# Results as given in the supplement of paper PMC8728848.
# This is one part of the list.
# B1: Epa3 (Candida glabrata), Q6VBI8_CANGB (protein)
# chain: MGSSHHHHHHSSGLVPRGSHMNDLGFSLFEKRELSSQNPFGYPIGCSPQDVAIIPGLTMELYSYPIVSGTPPNCYDASYVDPEYPRTGYLKRKMVGKSTGVTGNLNYKYSVEKACMVKYGNLPAGYNYNEPLTVSNFTMILYGYFKAQTTGLHTFFVNADDLLYINFGAGNAFDCCKREDSKTKLGEYVAYDIWHVDSSKNKVSLFLEKDLYYPIRMFFNNIGKDSSLDLSFSVNGATDQISDFSGYLYSVPDQPDTCPAHIGYDTTCR
# Columns and labels:
# Experiment in all cases: glycan array binding signal (z-score within array); higher = stronger binding
# Details in all cases: glycan notation: IUPAC condensed, linker removed
# [1] = target: Gal(b1-3)GlcNAc(b1-3)Gal(b1-4)GlcNAc(b1-2)Man(a1-3)[Gal(b1-3)GlcNAc(b1-3)Gal(b1-4)GlcNAc(b1-2)Man(a1-6)]Man(b1-4)GlcNAc(b1-4)GlcNAc
# Outline: (§1)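 From the Consortium for Functional Glycomics database, 3228 arrays were curated, keeping only those whose protein sequence was available. Binding is given as a within-array Z-score averaged across arrays sharing a protein sequence and across linkers. Negative Z-scores can be read as non-binding.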
# [2] = target: Gal(b1-3)GlcNAc(b1-3)Gal(b1-4)GlcNAc(b1-2)[Gal(b1-3)GlcNAc(b1-3)Gal(b1-4)GlcNAc(b1-6)]Man(a1-6)[Gal(b1-3)GlcNAc(b1-3)Gal(b1-4)GlcNAc(b1-2)Man(a1-3)]Man(b1-4)GlcNAc(b1-4)[Fuc(a1-6)]GlcNAc
# Outline: as §1
# [3] = target: Gal(b1-3)GlcNAc(b1-3)Gal(b1-4)GlcNAc(b1-3)Gal(b1-4)GlcNAc(b1-2)[Gal(b1-3)GlcNAc(b1-3)Gal(b1-4)GlcNAc(b1-3)Gal(b1-4)GlcNAc(b1-6)]Man(a1-6)[Gal(b1-3)GlcNAc(b1-3)Gal(b1-4)GlcNAc(b1-3)Gal(b1-4)GlcNAc(b1-2)Man(a1-3)]Man(b1-4)GlcNAc(b1-4)[Fuc(a1-6)]GlcNAc
# Outline: as §1
# [4] = target: Gal(b1-3)GlcNAc(b1-3)Gal(b1-4)GlcNAc(b1-6)[Gal(b1-3)GlcNAc(b1-3)]Gal(b1-4)Glc
# Outline: as §1
# [5] = target: Gal(b1-3)GlcNAc(b1-3)Gal(b1-4)[Fuc(a1-3)]GlcNAc
# Outline: as §1
# [6] = target: Gal(b1-3)GlcNAc(b1-3)Gal(b1-4)[Fuc(a1-3)]GlcNAc(b1-6)[Gal(b1-3)GlcNAc(b1-3)]Gal(b1-4)Glc
# Outline: as §1
# [7] = target: Gal(b1-3)GlcNAc(b1-3)GalNAc
# Outline: as §1
# [8] = target: Gal(b1-3)GlcNAc(b1-6)Gal(b1-4)GlcNAc
# Outline: as §1
# [9] = target: Gal(b1-3)GlcNAc(b1-6)GalNAc
# Outline: as §1
# [10] = target: Gal(b1-3)GlcNAc(b1-6)[Gal(b1-3)]GalNAc
# Outline: as §1
# Gal(b1-3)GlcNAc6S = target: Gal(b1-3)GlcNAc6S
# Outline: as §1
# [11] = target: Gal(b1-3)[Fuc(a1-4)]GlcNAc
# Outline: as §1
# [12] = target: Gal(b1-3)[Fuc(a1-4)]GlcNAc(b1-2)Man
# Outline: as §1
# [13] = target: Gal(b1-3)[Fuc(a1-4)]GlcNAc(b1-2)Man(a1-3)[Gal(b1-3)[Fuc(a1-4)]GlcNAc(b1-2)Man(a1-6)]Man(b1-4)GlcNAc(b1-4)[Fuc(a1-6)]GlcNAc
# Outline: as §1
# [14] = target: Gal(b1-3)[Fuc(a1-4)]GlcNAc(b1-3)Gal(b1-3)[Fuc(a1-4)]GlcNAc
# Outline: as §1
# [15] = target: Gal(b1-3)[Fuc(a1-4)]GlcNAc(b1-3)Gal(b1-4)[Fuc(a1-3)]GlcNAc
# Outline: as §1
# [16] = target: Gal(b1-3)[Fuc(a1-4)]GlcNAc(b1-6)GalNAc
# Outline: as §1
# [17] = target: Gal(b1-3)[GlcNAc(b1-6)]GalNAc
# Outline: as §1
# [18] = target: Gal(b1-3)[Neu5Ac(a2-6)]GalNAc
# Outline: as §1
# [19] = target: Gal(b1-3)[Neu5Ac(a2-6)]GlcNAc(b1-4)Gal(b1-4)Glc
# Outline: as §1
# [20] = target: Gal(b1-3)[Neu5Ac(b2-6)]GalNAc
# Outline: as §1
# Gal(b1-4)Gal = target: Gal(b1-4)Gal
# Outline: as §1
# [21] = target: Gal(b1-4)GalNAc(a1-3)[Fuc(a1-2)]Gal(b1-4)GlcNAc
# Outline: as §1
# [22] = target: Gal(b1-4)GalNAc(b1-3)[Fuc(a1-2)]Gal(b1-4)GlcNAc
# Outline: as §1
# Gal(b1-4)Glc = target: Gal(b1-4)Glc
# Outline: as §1
# Gal(b1-4)Glc6S = target: Gal(b1-4)Glc6S
# Outline: as §1
# Gal(b1-4)GlcNAc = target: Gal(b1-4)GlcNAc
# Outline: as §1
# [23] = target: Gal(b1-4)GlcNAc(a1-6)Gal(b1-4)GlcNAc
# Outline: as §1
# Gal(b1-4)GlcNAc(b1-2)Man = target: Gal(b1-4)GlcNAc(b1-2)Man
# Outline: as §1
# [24] = target: Gal(b1-4)GlcNAc(b1-2)Man(a1-3)Man(b1-4)GlcNAc(b1-4)GlcNAc
# Outline: as §1
# [25] = target: Gal(b1-4)GlcNAc(b1-2)Man(a1-3)[Gal(b1-4)GlcNAc(b1-2)Man(a1-6)]Man(b1-4)GlcNAc(b1-4)GlcNAc
# Outline: as §1
# [26] = target: Gal(b1-4)GlcNAc(b1-2)Man(a1-3)[Gal(b1-4)GlcNAc(b1-2)Man(a1-6)]Man(b1-4)GlcNAc(b1-4)[Fuc(a1-6)]GlcNAc
# Outline: as §1
# [27] = target: Gal(b1-4)GlcNAc(b1-2)Man(a1-3)[Gal(b1-4)GlcNAc(b1-2)Man(a1-6)][Gal(b1-4)GlcNAc(b1-4)]Man(b1-4)GlcNAc(b1-4)[Fuc(a1-6)]GlcNAc
# Outline: as §1
# [28] = target: Gal(b1-4)GlcNAc(b1-2)Man(a1-3)[Gal(b1-4)GlcNAc(b1-2)Man(a1-6)][GlcNAc(b1-4)]Man(b1-4)GlcNAc(b1-4)[Fuc(a1-6)]GlcNAc
# Outline: as §1
# [29] = target: Gal(b1-4)GlcNAc(b1-2)Man(a1-3)[GlcNAc(b1-2)Man(a1-6)]Man(b1-4)GlcNAc(b1-4)GlcNAc
# Outline: as §1
# [30] = target: Gal(b1-4)GlcNAc(b1-2)Man(a1-3)[GlcNAc(b1-4)][Gal(b1-4)GlcNAc(b1-2)Man(a1-6)]Man(b1-4)GlcNAc(b1-4)GlcNAc
# Outline: as §1
# [31] = target: Gal(b1-4)GlcNAc(b1-2)Man(a1-3)[Man(a1-6)]Man(b1-4)GlcNAc(b1-4)GlcNAc
# Outline: as §1
# [32] = target: Gal(b1-4)GlcNAc(b1-2)Man(a1-6)Man(b1-4)GlcNAc(b1-4)GlcNAc
# Outline: as §1
binder,measurement,setting,value
B1,glycan array binding signal (z-score),[1],-0.199
same,glycan array binding signal (z-score),[2],0.022
same,glycan array binding signal (z-score),[3],0.093
same,glycan array binding signal (z-score),[4],-0.13
same,glycan array binding signal (z-score),[5],0.023
same,glycan array binding signal (z-score),[6],-0.126
same,glycan array binding signal (z-score),[7],-0.127
same,glycan array binding signal (z-score),[8],-0.269
same,glycan array binding signal (z-score),[9],-0.218
same,glycan array binding signal (z-score),[10],0.827
same,glycan array binding signal (z-score),Gal(b1-3)GlcNAc6S,-0.031
same,glycan array binding signal (z-score),[11],-0.142
same,glycan array binding signal (z-score),[12],0.116
same,glycan array binding signal (z-score),[13],-0.075
same,glycan array binding signal (z-score),[14],0.041
same,glycan array binding signal (z-score),[15],0.048
same,glycan array binding signal (z-score),[16],0.117
same,glycan array binding signal (z-score),[17],1.24
same,glycan array binding signal (z-score),[18],4.98
same,glycan array binding signal (z-score),[19],-0.353
same,glycan array binding signal (z-score),[20],0.622
same,glycan array binding signal (z-score),Gal(b1-4)Gal,-0.223
same,glycan array binding signal (z-score),[21],-0.136
same,glycan array binding signal (z-score),[22],-0.192
same,glycan array binding signal (z-score),Gal(b1-4)Glc,-0.298
same,glycan array binding signal (z-score),Gal(b1-4)Glc6S,-0.307
same,glycan array binding signal (z-score),Gal(b1-4)GlcNAc,-0.097
same,glycan array binding signal (z-score),[23],-0.36
same,glycan array binding signal (z-score),Gal(b1-4)GlcNAc(b1-2)Man,-0.235
same,glycan array binding signal (z-score),[24],-0.379
same,glycan array binding signal (z-score),[25],-0.306
same,glycan array binding signal (z-score),[26],0.052
same,glycan array binding signal (z-score),[27],-0.208
same,glycan array binding signal (z-score),[28],-0.401
same,glycan array binding signal (z-score),[29],-0.233
same,glycan array binding signal (z-score),[30],-0.319
same,glycan array binding signal (z-score),[31],-0.113
same,glycan array binding signal (z-score),[32],-0.327
